Among the data in PMC7383879, “HSI2/VAL1 and HSL1/VAL2 function redundantly to repress DOG1 expression in Arabidopsis seeds and seedlings” are binding values, retold here.

No constants are given. Whether binding was seen depends on the method and setting. Binding seen in cells or lysates may run through a third protein. Some binding calls cover weakened binding; strength is not graded here. Where a sequence is shown, tags or fusion partners need not be part of it.

Experiment [1] has as its target T1, HSI2‐LIKE1 (HSL1), BiFC fusion (Arabidopsis thaliana) (UniProt Q5CCK4).
T1 sequence: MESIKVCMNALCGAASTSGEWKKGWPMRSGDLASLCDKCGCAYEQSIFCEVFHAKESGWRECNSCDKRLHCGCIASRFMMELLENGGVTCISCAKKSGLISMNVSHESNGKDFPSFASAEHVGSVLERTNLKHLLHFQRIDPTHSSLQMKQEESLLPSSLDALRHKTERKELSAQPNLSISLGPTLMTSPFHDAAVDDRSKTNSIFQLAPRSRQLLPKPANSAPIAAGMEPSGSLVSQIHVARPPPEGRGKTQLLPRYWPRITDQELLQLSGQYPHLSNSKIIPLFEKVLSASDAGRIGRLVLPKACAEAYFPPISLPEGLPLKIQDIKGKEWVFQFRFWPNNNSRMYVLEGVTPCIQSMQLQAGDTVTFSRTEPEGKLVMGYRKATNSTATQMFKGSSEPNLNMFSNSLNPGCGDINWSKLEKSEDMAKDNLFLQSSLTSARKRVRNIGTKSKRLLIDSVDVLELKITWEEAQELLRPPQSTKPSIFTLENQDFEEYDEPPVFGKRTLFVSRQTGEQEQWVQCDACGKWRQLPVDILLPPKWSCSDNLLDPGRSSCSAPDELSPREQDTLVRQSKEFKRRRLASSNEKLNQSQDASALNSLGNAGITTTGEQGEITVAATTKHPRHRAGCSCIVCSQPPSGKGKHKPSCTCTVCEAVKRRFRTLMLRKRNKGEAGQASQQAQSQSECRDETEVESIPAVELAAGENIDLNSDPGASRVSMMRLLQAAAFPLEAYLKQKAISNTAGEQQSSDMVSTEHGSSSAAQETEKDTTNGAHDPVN
The experiment is described as follows: split reporter; BiFC: nEYFP and cEYFP fusions, Agrobacterium GV2260 co-infiltrated into tobacco (N. benthamiana) leaves; YFP fluorescence by confocal microscopy after 2 d.

Experiment [2] addresses HSI2mPHD (HSI2 with eight conserved amino acids of the PHD domain substituted), BiFC fusion (Arabidopsis thaliana) (UniProt Q8W4L5). Described as above.
Experiment [3] concerns the target T2, HSL1‐GFP (35S:HSL1‐GFP) for co-immunoprecipitation (Arabidopsis thaliana) (UniProt Q5CCK4).
T2 sequence: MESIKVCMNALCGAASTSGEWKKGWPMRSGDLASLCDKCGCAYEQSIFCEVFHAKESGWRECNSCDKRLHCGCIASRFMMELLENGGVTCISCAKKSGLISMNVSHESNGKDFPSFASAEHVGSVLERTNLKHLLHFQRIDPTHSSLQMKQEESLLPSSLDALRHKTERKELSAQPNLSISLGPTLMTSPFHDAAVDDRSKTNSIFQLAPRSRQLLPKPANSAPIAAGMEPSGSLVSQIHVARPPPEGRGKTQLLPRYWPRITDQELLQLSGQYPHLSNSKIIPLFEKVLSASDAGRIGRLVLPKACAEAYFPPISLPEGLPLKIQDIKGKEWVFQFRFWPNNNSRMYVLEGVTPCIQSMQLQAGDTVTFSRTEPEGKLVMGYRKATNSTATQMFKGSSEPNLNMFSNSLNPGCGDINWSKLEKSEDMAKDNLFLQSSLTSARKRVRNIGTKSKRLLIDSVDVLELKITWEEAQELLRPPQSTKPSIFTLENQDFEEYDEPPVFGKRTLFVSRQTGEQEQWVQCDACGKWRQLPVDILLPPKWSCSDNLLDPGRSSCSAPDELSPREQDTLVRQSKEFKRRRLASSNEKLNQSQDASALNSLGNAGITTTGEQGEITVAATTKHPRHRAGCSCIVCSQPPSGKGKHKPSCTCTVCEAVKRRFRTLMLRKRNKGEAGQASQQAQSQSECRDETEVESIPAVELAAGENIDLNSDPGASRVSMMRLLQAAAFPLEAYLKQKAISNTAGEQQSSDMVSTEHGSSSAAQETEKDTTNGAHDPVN
Put plainly: co-IP; total protein of agroinfiltrated tobacco leaves (50 mM Tris-HCl pH 7.5, 150 mM NaCl, 2 mM EDTA, 10% glycerol, 1% Triton X-100); anti-GFP mAb-magnetic beads overnight at 4°C; immunoblot with anti-myc. In general terms: A western blot detects proteins with antibodies after separation by electrophoresis.

For experiment [4], the target named is T3, HSI2‐GFP (35S:HSI2‐GFP) for co-immunoprecipitation (Arabidopsis thaliana) (UniProt Q8W4L5).
T3 sequence: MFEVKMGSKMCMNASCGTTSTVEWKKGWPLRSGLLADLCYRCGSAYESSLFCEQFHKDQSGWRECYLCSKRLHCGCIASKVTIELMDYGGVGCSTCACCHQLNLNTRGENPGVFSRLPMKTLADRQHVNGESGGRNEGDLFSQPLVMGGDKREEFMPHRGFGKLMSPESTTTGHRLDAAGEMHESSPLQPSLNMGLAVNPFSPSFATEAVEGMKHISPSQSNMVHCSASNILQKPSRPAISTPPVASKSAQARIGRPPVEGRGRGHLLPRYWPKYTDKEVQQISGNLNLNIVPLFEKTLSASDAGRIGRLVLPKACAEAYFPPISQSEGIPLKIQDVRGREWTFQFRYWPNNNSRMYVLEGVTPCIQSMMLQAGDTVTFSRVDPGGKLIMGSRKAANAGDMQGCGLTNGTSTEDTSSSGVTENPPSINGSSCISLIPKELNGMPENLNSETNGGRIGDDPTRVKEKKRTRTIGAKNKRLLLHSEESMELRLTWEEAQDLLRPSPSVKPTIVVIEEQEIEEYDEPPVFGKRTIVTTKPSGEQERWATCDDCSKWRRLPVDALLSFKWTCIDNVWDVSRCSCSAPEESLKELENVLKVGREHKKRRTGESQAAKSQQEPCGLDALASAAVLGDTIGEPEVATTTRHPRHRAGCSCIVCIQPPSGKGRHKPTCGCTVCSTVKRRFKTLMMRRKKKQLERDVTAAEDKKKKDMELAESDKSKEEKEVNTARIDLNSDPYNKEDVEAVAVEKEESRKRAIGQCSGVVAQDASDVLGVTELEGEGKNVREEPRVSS
The experiment is described as above.

B1: HSI2mPHD (HSI2 with eight conserved amino acids of the PHD domain substituted), BiFC fusion (protein, UniProt Q8W4L5 1-790)
chain: MFEVKMGSKMCMNASCGTTSTVEWKKGWPLRSGLLADLSYRSGSAYESSLFCEQFHKDQSGWRESYLSSKRLLCGSIASKVTIELMDYGGVGSSTSACCHQLNLNTRGENPGVFSRLPMKTLADRQHVNGESGGRNEGDLFSQPLVMGGDKREEFMPHRGFGKLMSPESTTTGHRLDAAGEMHESSPLQPSLNMGLAVNPFSPSFATEAVEGMKHISPSQSNMVHCSASNILQKPSRPAISTPPVASKSAQARIGRPPVEGRGRGHLLPRYWPKYTDKEVQQISGNLNLNIVPLFEKTLSASDAGRIGRLVLPKACAEAYFPPISQSEGIPLKIQDVRGREWTFQFRYWPNNNSRMYVLEGVTPCIQSMMLQAGDTVTFSRVDPGGKLIMGSRKAANAGDMQGCGLTNGTSTEDTSSSGVTENPPSINGSSCISLIPKELNGMPENLNSETNGGRIGDDPTRVKEKKRTRTIGAKNKRLLLHSEESMELRLTWEEAQDLLRPSPSVKPTIVVIEEQEIEEYDEPPVFGKRTIVTTKPSGEQERWATCDDCSKWRRLPVDALLSFKWTCIDNVWDVSRCSCSAPEESLKELENVLKVGREHKKRRTGESQAAKSQQEPCGLDALASAAVLGDTIGEPEVATTTRHPRHRAGCSCIVCIQPPSGKGRHKPTCGCTVCSTVKRRFKTLMMRRKKKQLERDVTAAEDKKKKDMELAESDKSKEEKEVNTARIDLNSDPYNKEDVEAVAVEKEESRKRAIGQCSGVVAQDASDVLGVTELEGEGKNVREEPRVSS
For the molecule B1, the binding entry in experiment [1] and in experiment [2] was “no binding” each time.

B2: CURLY LEAF (CLF) for co-immunoprecipitation (protein, UniProt P93831 1-902)
chain: MASEASPSSSATRSEPPKDSPAEERGPASKEVSEVIESLKKKLAADRCISIKKRIDENKKNLFAITQSFMRSSMERGGSCKDGSDLLVKRQRDSPGMKSGIDESNNNRYVEDGPASSGMVQGSSVPVKISLRPIKMPDIKRLSPYTTWVFLDRNQRMTEDQSVVGRRRIYYDQTGGEALICSDSEEEAIDDEEEKRDFLEPEDYIIRMTLEQLGLSDSVLAELASFLSRSTSEIKARHGVLMKEKEVSESGDNQAESSLLNKDMEGALDSFDNLFCRRCLVFDCRLHGCSQDLIFPAEKPAPWCPPVDENLTCGANCYKTLLKSGRFPGYGTIEGKTGTSSDGAGTKTTPTKFSSKLNGRKPKTFPSESASSNEKCALETSDSENGLQQDTNSDKVSSSPKVKGSGRRVGRKRNKNRVAERVPRKTQKRQKKTEASDSDSIASGSCSPSDAKHKDNEDATSSSQKHVKSGNSGKSRKNGTPAEVSNNSVKDDVPVCQSNEVASELDAPGSDESLRKEEFMGETVSRGRLATNKLWRPLEKSLFDKGVEIFGMNSCLIARNLLSGFKSCWEVFQYMTCSENKASFFGGDGLNPDGSSKFDINGNMVNNQVRRRSRFLRRRGKVRRLKYTWKSAAYHSIRKRITEKKDQPCRQFNPCNCKIACGKECPCLLNGTCCEKYCGCPKSCKNRFRGCHCAKSQCRSRQCPCFAADRECDPDVCRNCWVIGGDGSLGVPSQRGDNYECRNMKLLLKQQQRVLLGISDVSGWGAFLKNSVSKHEYLGEYTGELISHKEADKRGKIYDRENCSFLFNLNDQFVLDAYRKGDKLKFANHSPEPNCYAKVIMVAGDHRVGIFAKERILAGEELFYDYRYEPDRAPAWAKKPEAPGSKKDENVTPSVGRPKKLA
Take B2: the binding entry in experiment [3] and in experiment [4] was “binds” in each case.
